# Assay results reported in article PMC12136788.
# This is one part of the list.
# B1: chr6:75950928:75950929:-_ENSG00000112695_ENST00000509698|hu_hu|FALSE|FALSE (ssRNA)
# RNA: GGGAGUUCUACAGUCCGACGAUCUGGAAUUUCAUCAUCCUCCUGGAACAGUUUUUGCUUCUCCGGAACUUUAUUUUUAAAAUGCCUGCGGGAAGCAGUGCUUAUCGUCCUCUGCCCAAUCUGACGAAGAGCCAGCAGAUUCCGCAACAGAGGAUUGAGCAUCA
# B2: chr16:94651144:94651145:+_ENSMUSG00000040785_ENSMUST00000117648|mus_hu|mus_mus_mus_hu_True|48_108 (ssRNA)
# RNA: GGGAGUUCUACAGUCCGACGAUCAUUCUCUUGGAUCAAGUGGCGAAUAACAUAGUCCACUGCUUCAUUUAGAAAAUUUCUGCUAGAAAAGCAUGUUGUAUAGUCUUCUGUGCUCAAAACUUUCCAAGAAAGCAAUUCUUUGAGCAACAGAGGAUUGAGCAUCA
# B3: chr2:201943701:201943702:+_ENSG00000119013_ENST00000433898|hu_hu|motif|central (ssRNA)
# RNA: GGGAGUUCUACAGUCCGACGAUCAUUGCGGCCCCAUGGAUCCCUUAGCCCUUUUGCAGCCAGCUUCUUCUGGAUAGUUUCGGAUGGUGUCCCUUCUAUCUUCCAUUGUCUAUAAUCUGGAAGUUCCAUUUUAUGAUGUCCAUGCAACAGAGGAUUGAGCAUCA
# B4: chr10:60562040:60562041:-_ENSMUSG00000020097_ENSMUST00000092498|mus_mus|FALSE|FALSE (ssRNA)
# RNA: GGGAGUUCUACAGUCCGACGAUCCCUGUGAUGAACCAGCUGGUAACACCUGGGGUCAGAACAGUGCUGAAGACCACUUCCUAAGGAGGGUGAGGAAGAGCCUGGUGGUCUGGCUCUCCCAGCGAGCAAUGCCCAGGCUGAAUACAACAGAGGAUUGAGCAUCA
# B5: chr12:111867003:111867004:+_ENSMUSG00000018707_ENSMUST00000018851|mus_hu|FALSE|FALSE (ssRNA)
# RNA: GGGAGUUCUACAGUCCGACGAUCCACCAGCAUAUUUAUCUUCAUGUAACCUUUCAGAAGCCUCUGAACAAACUCAUAGGACGCAUACUGUCGCAACCGGGCAGGGAAGCUUUUCAGCUGGUUCAGGAGGGCAUCCAAAUUUUGCAACAGAGGAUUGAGCAUCA
# B6: chr14:28255117:28255118:+_ENSMUSG00000040651_ENSMUST00000022450|mus_mus|motif|central (ssRNA)
# RNA: GGGAGUUCUACAGUCCGACGAUCAACAACAUCGCCUACUGCCCCAGCCUCCAAAGGAUUAGCCUGUAAGAGAUCUGCAUACCGGCAAAGAUAGAUACCCAUGGAAGGACUGCCAAGAACUGUUAUUUUGGAUUGGCCCACCUGCAACAGAGGAUUGAGCAUCA
# B7: chr5:118832277:118832278:+_ENSG00000133835_ENST00000256216|hu_hu|motif|central (ssRNA)
# RNA: GGGAGUUCUACAGUCCGACGAUCUGUUGCUGUAGACGUUGCACGACUAGUAUGAUUUGCUGAAACUCCUCCUUCUGAAUCGGUUUUACUCAGAACUUCAAUUAUACUGCCAGUUGAUUCUUGGAUACUCUGAGGCUUGCUGGCCAACAGAGGAUUGAGCAUCA
# B8: chr7:148083511:148083512:+_ENSMUSG00000025487_ENSMUST00000026560|mus_hu|FALSE|FALSE (ssRNA)
# RNA: GGGAGUUCUACAGUCCGACGAUCAAAUCCAACACUCGGGGCUGCACCCAGGUCAUGUGGACUCGUUUGUCCACCUCGUCUAUACUGCCUUUCACCAGCCCCACCGAAAGGGCCUUCAUCACCAGAAGCUCCACCUCAUUCACUCAACAGAGGAUUGAGCAUCA
# B9: 11227573_11230786_2058_CDS_ENSG00000130164_ENST00000252444|human|control|control (ssRNA)
# RNA: GGGAGUUCUACAGUCCGACGAUCCUGUCCAAAAUACUUUGUCCUCAAAGACGGCCAAGGAGAAGGGGUGGGCCAGCCUCUUUUCAUCCUCCAAGAUGGUCUUCCGGUUGCCCCCGUUGACAUCGAUGCUUGAGAUGGAGUGAACAACAGAGGAUUGAGCAUCA
# B10: chr7:140404665:140404666:+_ENSG00000090266_ENST00000247866|hu_hu|hu_hu_hu_mus_False|58_98 (ssRNA)
# RNA: GGGAGUUCUACAGUCCGACGAUCUGCUCCUACUCGUAGGCUGAGUCUACAGUGUCAGUCCUCGUCAUCAGGAGGGAUACCUAAUUCUUCAUCUGUCCACUGUGAAGGAUCUGGAUAUGAAAAGUGACCCAGCACAGCAUCCGACAACAGAGGAUUGAGCAUCA
# B11: chr2:202488911:202488912:-_ENSG00000155755_ENST00000286196|hu_mus|hu_hu_hu_mus_False|8_48 (ssRNA)
# RNA: GGGAGUUCUACAGUCCGACGAUCAUUGAAACAUUUUUCAUAAUCUCCAGUAGCAUUUCAGCAUUAUGUAACAAAAGCUCAAUUGUAAAUACACAUGUCUUAUAAAAAUACACUUAAAAACACGAGUAAAAAUGGGAGGCGCCACAACAGAGGAUUGAGCAUCA
# B12: chr19:41288892:41288893:-_ENSMUSG00000025016_ENSMUST00000025989|mus_mus|FALSE|FALSE (ssRNA)
# RNA: GGGAGUUCUACAGUCCGACGAUCUGGAUGGAACUGAGAAAGCUGGUUAAUUUUAAGAUAAAUAAAUGAGGUUGAUCCAAACUAAGAUUAAGAUGACAGCAGAUAUAUUCCAUGCAGAAUUGAAUAGCUUUUAAUUUUGUUUUUCAACAGAGGAUUGAGCAUCA
# B13: chr1:225611761:225611762:-_ENSG00000143815_ENST00000272163|hu_mus|hu_hu_hu_mus_True|8_78 (ssRNA)
# RNA: GGGAGUUCUACAGUCCGACGAUCCCAGGCCAUCGGCCUCUGACCACUUCACCCUCAGCAAAUUUCCUACUUGGCAUUUUCUAAAAUUAGUCUGGCCGCGCUCCGGCGGGAACUCCAGCCACUCCAGGGAGAAUAGUAGCAGCCCAACAGAGGAUUGAGCAUCA
# B14: 102090863_102090983_4398_3pUTR_ENSG00000160991_ENST00000478730|human|control|control (ssRNA)
# RNA: GGGAGUUCUACAGUCCGACGAUCACUUAAUACCUGCCUGGAUGCUGCCAGGCCAAGAGCUCUGCCUGGGGACCAGGUACAGUAACUGGCCCCCAGAUGGCACUGGAGAUGCGUUCCACAGUCUGGGGAGUGUGGUACUGCGUGCAACAGAGGAUUGAGCAUCA
# B15: chr10:7398381:7398382:+_ENSMUSG00000040034_ENSMUST00000040135|mus_mus|motif|central (ssRNA)
# RNA: GGGAGUUCUACAGUCCGACGAUCACUUACUAGAGACUGGUGAACACCGGCCUGGUUACUUAAGCUAUGUGACAGGAAAGUACGGCUUCUUCCUCCUUGGUGAAAGAGAGAAGACUUUUCAGGUGCAUCUGUGGAGGCAUCCCACAACAGAGGAUUGAGCAUCA
# B16: 123113321_123137217_1693_CDS_ENSMUSG00000041650_ENSMUST00000038374|mouse|control|control (ssRNA)
# RNA: GGGAGUUCUACAGUCCGACGAUCCGGCCCAUUGUUAGAUGCCACGACAGUAUGAUCUUCAUCAUGUAACUUUACCGAGAGCUCCCACUUAGCCACAUCAGGCCUAAUAACUGGUACUCUUGAAUGUUCUUGGAAGCGCUGAGCCAACAGAGGAUUGAGCAUCA
# B17: chr10:116622662:116622663:+_ENSG00000151553_ENST00000369248|hu_hu|FALSE|FALSE (ssRNA)
# RNA: GGGAGUUCUACAGUCCGACGAUCGAUAGGUGUAAAACAAGCCUCUAUGCACAUGCCACACAAUGCGUAUAUGCAAACAUGCUACAUAAAAUAACUUCCUAGAGGGGGUAGUGACAGUUCCCUUCAAGCCGGAACCUUUGAUAGCAACAGAGGAUUGAGCAUCA
# B18: 75573374_75574134_1457_3pUTR_ENSG00000119638_ENST00000238616|human|control|control (ssRNA)
# RNA: GGGAGUUCUACAGUCCGACGAUCUCUGAUCCGAAGGCAUAGAGCUGACCCUCAUCAGUCACACAGACAGUGAAAUCAUCACCACAUGACACCUGACGGAUAGCUUUGCCUUGCAACUUUUCCACAUGCUUUGGCUGUCGAUAGCAACAGAGGAUUGAGCAUCA
# B19: chr6:64286377:64286378:+_ENSG00000112245_ENST00000370650|hu_hu|FALSE|FALSE (ssRNA)
# RNA: GGGAGUUCUACAGUCCGACGAUCACUUGUCUGCAUAGAGGUCGUGCUGUGCCUGGCAGUAAUCUCCACUGCCCUUCAGAAACUCCAUAAAUGUGUGACCAAGAACACCACAGAAUUGAGGAAUAUGUUUACUCAUUGAAGAUUCAACAGAGGAUUGAGCAUCA
# B20: chr5:90669548:90669549:-_ENSG00000113369_ENST00000265138|hu_mus|FALSE|FALSE (ssRNA)
# RNA: GGGAGUUCUACAGUCCGACGAUCUGGAUCAAUCUCUGAAUAGAGAGGUGGGGGCAGGAACCGAAACUCCUGGAUAUAAGCAAACAGUGGUCCUUGGAGAGCUCUCUCAAAAUCAUCACAAGCACCCACUGGGGCGAGAUUAUUCAACAGAGGAUUGAGCAUCA
# B21: chr5:143849297:143849298:-_ENSMUSG00000045078_ENSMUST00000053498|mus_mus|FALSE|FALSE (ssRNA)
# RNA: GGGAGUUCUACAGUCCGACGAUCUACAUUCAAAUCAUAGUAAUUUUUCAAAUGAAUUAUUUCUUCAACAUAUCCACUUGCUACAUCUGGAAAUCUUGCUUCCGUUUCUUUCACUAACAGUGGAAUGAGGUCUUGAUCUACCUCCAACAGAGGAUUGAGCAUCA
# B22: chr5:162900210:162900211:+_ENSG00000072571_ENST00000358715|hu_hu|FALSE|FALSE (ssRNA)
# RNA: GGGAGUUCUACAGUCCGACGAUCUUCGAUGUAUUCCAAGAGUUUUUCUGUUUCAGAUUUUUCAUCAAUCUUUUCUUUCUCUAUUGAAACAAGUUUUCCCUCCAGUUGGGCUAUUUUCCCUUGAGACUCUUCGAGACUCCUUUGCAACAGAGGAUUGAGCAUCA
# Target: T1, UNK ZnF1-3 (human, UniProt Q9C0B0 31-174)
# T1 sequence: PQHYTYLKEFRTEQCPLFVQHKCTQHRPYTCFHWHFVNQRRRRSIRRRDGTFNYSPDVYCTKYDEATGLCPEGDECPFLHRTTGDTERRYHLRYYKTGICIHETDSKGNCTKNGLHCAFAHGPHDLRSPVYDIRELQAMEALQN
# Experiment: nsRBNS (natural sequence RNA bind-n-seq); RBNS binding buffer (assumed for nsRBNS): 25 mM Tris pH 7.5, 150 mM KCl, 3 mM MgCl2, 0.01% Triton X-100, 500 ug/ml BSA, 20 U/ml SUPERase-In, 4 C; UNK is unkempt and MSI1 is Musashi-1; names of the RNAs are library labels; protein concentration not given here; high values mean tight binding
row,Binder,binding signal
1,B1,0.69 enrichment R
2,B2,0.587 enrichment R
3,B3,0.606 enrichment R
4,B4,0.968 enrichment R
5,B5,1.13 enrichment R
6,B6,2 enrichment R
7,B7,0.593 enrichment R
8,B8,0.645 enrichment R
9,B9,0.975 enrichment R
10,B10,0.851 enrichment R
11,B11,0.835 enrichment R
12,B12,3.07 enrichment R
13,B13,1.18 enrichment R
14,B14,1.04 enrichment R
15,B15,0.933 enrichment R
16,B16,0.675 enrichment R
17,B17,0.502 enrichment R
18,B18,0.639 enrichment R
19,B19,1.34 enrichment R
20,B20,1.26 enrichment R
21,B21,0.534 enrichment R
22,B22,0.365 enrichment R
